The whole screen tested about 46,000 compounds, of which about 60 (0.1%) were called active. Inconclusive results (about 3%) are left out. The call rests on the fitted dose curve; in most records, active means well fitted inhibition curve with a large enough effect; inconclusive means small, poorly fitted or top-dose-only effect; inactive means no such curve, though single readings can be large or run the other way. The list shows a part of the results.
Test: Primary qHTS assay for Inhibitors of ovarian cancer metastasis using an organotypic tumor microenvironment (TME) model. Further: nearly all actives have a fitted effect of over 65% in size.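 On activity change, negative = inhibition: plate controls were DMSO wells for no effect and tomatine positive control wells for full effect.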
Conditions: SKOV3ip1-GFP adhesion/invasion on 3D omental model, fluorescence; series mostly up to 45.8 µM; activity change, negative = inhibition: at the top concentration
In short: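 Adhesion/invasion was scored as fixed GFP-labeled SKOV3ip1 cell counts (488/509 nm), normalized to DMSO and tomatine controls. Cancer cells in serum-free medium, with four compound doses (0.36-46 umol/L), sat 2 hr at RT then 16 hr at 37 C on a 48 hr fibroblast/mesothelial/ECM culture.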

Activity change, negative = inhibition, inactive:
COc1ccccc1NC(=O)CN1C(=O)CC(c2ccc(C)c(C)c2)=Nc2ccccc21 -12.1%
Cc1cccc(Cn2c(SCc3ccc(C(=O)N4CCC(C)CC4)cc3)nc3ccncc32)c1 -1.35%
CCCSc1ncc(Cl)c(C(=O)Nc2c(C(=O)Nc3ccccc3)oc3ccccc23)n1 -12.1%
O=C(OCC1CCCO1)c1ccc2c(c1)N(Cc1cccc(Cl)c1)C(=O)c1ccccc1S2(=O)=O (centres undefined) -7.01%
CN1CCSc2ccc(C(=O)NCc3ccccc3F)cc21 -2.03%
COC(=O)c1c(C)sc(-c2c(-c3ccc4c(c3)OCCO4)[nH]c3[nH]c(=O)[nH]c(=O)c23)c1O 4.3%
O=S(=O)(c1ccc(Br)cc1)c1nnn2c1nc(Nc1cccc(C(F)(F)F)c1)c1sccc12 4.3%
CCOc1ccc(-c2cc3nc(C4CCN(C(=O)OC(C)(C)C)CC4)c(C(=O)Nc4ccc(C)cc4Cl)cn3n2)cc1 -9.26%
Cc1cc(C)c2c(n1)nn1c(C)c(CCC(=O)NCc3ccccc3Cl)c(C)nc21 -8.33%
CCN(c1ccccc1)S(=O)(=O)c1ccc(NC(=O)c2cc(=O)c3cc(C)ccc3o2)cc1 -8.67%
COc1ccc(Cl)cc1NC(=O)CSc1c2c(nc3ccccc13)CCC2 -6.16%
COc1cc(C(=O)Nc2nc3c(s2)Cc2c(Br)ccc(OC)c2-3)cc(OC)c1OC -0.194%
O=C(Nc1nnc(N2CCCCCC2)s1)Nc1ccccc1C(F)(F)F 6.15%
CCC(Sc1nc2ccccc2c2nc(CCc3c(C)n[nH]c3C)nn12)C(=O)Nc1ccc(OC)cc1 (centres undefined) 1.64%
O=S(=O)(Nc1cccc(-c2ccc(N3CCCC3)nn2)c1)c1ccc(F)cc1F 10.2%
O=S(=O)(c1ccc(F)cc1)N1CCC(n2c(C(F)(F)F)nc3cccnc32)CC1 -1.52%
COc1ccc(CNC(=O)C2CCN(c3nnc(-n4cccc4CNc4ccc(C)cc4)s3)CC2)c(OC)c1 1.9%
COc1ccc(-c2cn3nc(N4CCCC(C(=O)NCc5ccccc5C)C4)sc3n2)cc1 (centres undefined) 1.11%
CCOC(=O)c1ccccc1NC(=O)c1sc2ccccc2c1Cl 8.38%
COc1ccc(Cn2ccnc2SCC(=O)Nc2cc(C(F)(F)F)ccc2Cl)cc1 11.2%
COc1ccc(NC(=O)CSc2c3c(nc4ccccc24)CCC3)c(OC)c1 -4.61%
COc1cccc(NC(=O)CSCn2nnc3c(=O)[nH]c(Cc4ccc(F)cc4)nc32)c1 3.51%
CN(Cc1ccc(F)cc1)S(=O)(=O)c1nnc(NC(=O)c2ccc(F)cc2)s1 18.3%
Cc1cc(Cl)ccc1Nc1ncnc2onc(C)c12 3.17%
Cc1ccc(Cl)cc1N1CCN(C(=O)c2cc(S(=O)(=O)N3CCCCCC3)cn2C)CC1 32%
O=C(CN(CCc1ccccc1)S(=O)(=O)c1ccccc1)NCc1ccc(Cl)cc1 -7.28%
COc1ccc(NC(=O)C2CCCN(S(=O)(=O)c3ccc4c(c3)CCCN4C(C)=O)C2)cc1 (centres undefined) -3.04%
O=C(CSc1nc2c([nH]c3ccccc32)c(=O)n1-c1ccccc1F)Nc1ccccc1C(F)(F)F -0.638%
COC(=O)c1ccc2c(c1)N(CC(=O)Nc1cccc(C(F)(F)F)c1)C(=O)c1ccccc1S2 7.42%
CCOc1ccc(CNC(=O)c2[nH]c3ccccc3c2Sc2ccc(C)cc2)cc1 -6.56%
O=C(Cn1ccn(-c2cccc(Cl)c2)c(=O)c1=O)c1ccc(F)cc1 -3.2%
O=C(NCCCN1CCN(c2ccc(F)cc2)CC1)c1sc2ncccc2c1-n1cccc1 4.36%
CC(C)c1ccccc1NC(=O)CN(c1ccccc1)S(=O)(=O)N(C)C 17.5%
Cc1ccc2c(c1)CC(C)N2S(=O)(=O)c1nnc(NC(=O)c2ccccc2F)s1 (centres undefined) -19.5%
Cc1ccc(C(=O)N2CCC(N3CCN(Cc4ccc(F)cc4)C(=O)C3=O)CC2)cc1 0.259%
O=C1C(c2ccc(F)cc2)N(Cc2ccccc2Cl)C(=O)CN1C1CCCCC1 (centres undefined) 1.18%
Cc1cc(C)cc(NC(=O)CCS(=O)(=O)c2ccc3nc(C)sc3c2)c1 -7.09%
CCOc1ccc(-c2nn(-c3ccccc3)cc2C2NC(=O)NC(C)=C2C(=O)OC(C)C)cc1C (centres undefined) -8.72%
COc1ccc(OC)c(S(=O)(=O)N2Cc3ccccc3CC2C(=O)Nc2ccc(Cl)cc2)c1 (centres undefined) -0.928%
Cc1ccc(N(C)C(=O)Cn2cc(S(=O)(=O)N3CCCC3)c(S(=O)(=O)N3CCCC3)c2)cc1 1.21%
O=C(Nc1ccc(F)cc1)C1CCCN(c2ncnc3c2nc2n3CCCCC2)C1 (centres undefined) -6.77%
Cc1cccc(CNC(=O)Cc2ccc(NC(=O)N3CCCCc4ccccc43)cc2)c1 8.21%
CCN(CC)CCn1c2c(c(SCC(=O)Nc3cccc(C(F)(F)F)c3)nc1=O)CCC2 -7.47%
COc1cccc(CNC(=O)c2oc3ccc4c(c3c2C)C(=O)CC(C)(C)O4)c1OC 0.845%

outcome, inactive:
COc1ccc(N2CCN(S(=O)(=O)CCNC(=O)COc3cccc(OC)c3)CC2)cc1
Cc1cccc(NC(=O)c2c(NC(=O)c3ccccc3)sc3c2CCCC3)c1
Cc1ccc(NC(=O)NCCOCCn2c(=O)oc3ccccc32)cc1F
O=C(c1ccc2c(c1)N(Cc1ccc(F)cc1)C(=O)c1ccccc1S2=O)N1CCOCC1 (centres undefined)
Cc1ccc(S(=O)(=O)c2nc(-c3cccc(C)c3)oc2N2CCCCC2)cc1
Cc1ccccc1-n1c(=O)c2c3c(sc2n2cnnc12)CCCC3
CCN(CC)C(=O)Cn1c(=O)cc(C)c2c(C)nn(C)c21
COc1cccc(Nc2sc(C(=O)c3ccc(F)cc3)c(N)c2C(=O)NCc2ccc(C)cc2)c1
COc1ccc(N2CCN(C(=O)CN(C)S(=O)(=O)c3cccs3)CC2)cc1
O=C(Nc1ccccc1Cl)C1CCN(c2nc3ccccc3[nH]2)CC1
COc1cc(CNc2ccc3c(c2)ncn3C(C)C)cc(OC)c1OC
Cc1ccc(NC(=O)CCS(=O)(=O)c2ccc(Br)cc2)c(C)c1
Cc1ccc(-n2nc(CO)c(C(=O)NCCCCc3ccccc3)n2)cc1
CCOC(=O)c1cc(-c2ccccc2)n(CCC(=O)Nc2ccc(C)cc2Cl)c1C
COc1ccc(CCNC(=O)CCCCn2c(=O)c3ccccc3n(Cc3ccc(Cl)cc3)c2=O)cc1OC

Reference: PubChem BioAssay AID1963576 (National Center for Advancing Translational Sciences (NCATS), 2024)
